Patent US5747452A, “Method of modulating tumor cell migration using fibronectin type III peptides” (La Jolla Cancer Research Foundation, priority 1995, dated 1998)
Each block holds one compound with its values, some of them ahead of it.

Experiments:
[1] = system: fibronectin matrix assembly by IMR-90 cells
fibronectin [2] = assay: Protein-protein binding assay: 125I-fibronectin to coated fibronectin; parameters: species or system human
Description: (§1) Protein-protein binding assays were performed on Immulon 2, Removawell strips. Proteins were coated onto wells in 100 mM Na2 CO3, pH 9.5, in a moist chamber at 4° C. over night. Fibronectin was coated at a concentration of approximately 4 μg/ml. The wells were washed three times with PBS followed by blocking with 0.2% bovine serum albumin in PBS (0.2% BSA) at 37° C. for 1 hour. Radiolabeled proteins were added to the wells in 0.2% BSA at 5 μCi/ml. Proteins were allowed to bind for 24 hours at 37° C., then the wells were washed four times with 0.2% BSA, the wells were removed and the bound ^125 I radioisotope was measured.
(§2) All of the data represent specific binding, which is defined as binding to fibronectin minus binding to control wells coated with only 2% BSA. […] Binding data were analyzed by using the program LIGAND according to Munson et al., Anal. Biochem. 107, 220 (1980).
(§3) Fibronectin was coated onto plastic wells in concentrations ranging from 0-100 μg/ml, blocked with BSA, then the wells were probed with ^125 I-labeled 14 kDa fragment (FIG. 5, panel A) or ^125 I-labeled fibronectin (FIG. 5, panel B) for 2 hours at 37° C. The amount of radioiodinated protein bound was measured after washing extensively with 0.2% BSA in PBS. Each data point is the average of duplicate determinations.
The ability of the 14 kDa fragment to compete for fibronectin-fibronectin binding was then tested as follows. […] The solutions were incubated for 2 hours at 37° C., followed by extensive washing with 0.2% BSA in PBS, and measurement of the radioactivity bound to the wells. […]
Four polypeptides (of 30-34 amino acids each) were synthesized, representing the region of fibronectin encompassed by the 14 kDa fragment (polypeptides P1, P2, P3, and P4). […] The solutions were incubated for 2 hours at 37° C., followed by extensive washing with 0.2% BSA in PBS, and measurement of the radioactivity bound to the wells. […]
The binding data from the experiment shown in FIG. 16 was analyzed with the aid of the program LIGAND.

P11-Sepharose = target: T1, P11-Sepharose (Homo sapiens, UniProt P02751, C2342S/C2367S/C2369S/C2379S); assay: Affinity chromatography of III1-E on P11-Sepharose; type: binding; details: 1 ml of 250 μg/ml on 0.5-ml column
T1 construct: made in house; host or cells: chemical synthesis
T1 sequence (P02751 2340-2383 C2342S/C2367S/C2369S/C2379S): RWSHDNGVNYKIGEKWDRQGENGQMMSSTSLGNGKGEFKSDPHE
Description: (§4) Polypeptides were coupled to CNBr-activated Sepharose CL-4B according to the manufacturer's recommendations. The concentration of polypeptide was typically 8-10 mg polypeptide/ml of resin. Fibronectin fragments or polypeptides were applied to affinity columns and the flow through fractions were collected.
(§5) For affinity chromatography as used in Example IX, the columns were washed with 10 volumes of PBS. The bound proteins were eluted with 5 column volumes of 8M urea in PBS. The amount of protein eluted from the column was quantitated by measuring the A280 of the solutions.
(§6) In a reciprocal experiment, the III1 -E protein which contains most of the III1 module, was applied to affinity columns made of P11-Sepharose or P12-Sepharose. 1 ml of a 250 μg/ml solution was applied to 0.5-ml columns. […] The results of both affinity chromatography experiments indicate that the P1-binding site is located in the 11th type-I repeat.

P12-Sepharose = target: T2, P12-Sepharose (Homo sapiens, UniProt P02751, C2386S/C2408S/C2410S/C2412S/C2421S/C2424S); assay: Affinity chromatography of III1-E on P12-Sepharose; type: binding; details: 1 ml of 250 μg/ml on 0.5-ml column
T2 construct: made in house; host or cells: chemical synthesis
T2 sequence (P02751 2384-2425 C2386S/C2408S/C2410S/C2412S/C2421S/C2424S): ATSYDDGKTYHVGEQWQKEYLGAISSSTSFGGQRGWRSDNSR
Description: as §4, §5, §6

[3] = Affinity chromatography of III1-E on Sepharose CL-4B control column; type: binding; details: 1 ml of 250 μg/ml on 0.5-ml column
Description: as §4, §5, §6

fibronectin [4] = assay: In vitro cross-linking assay of 125I-fibronectin; type: biochemical, human
Description: In vitro cross-linking assays were performed by adding various concentrations of either QE-C or FN 10 proteins to solutions of 5 μCi/ml ^125 I-fibronectin in 2% bovine serum albumin in PBS. The FN 10 protein is a negative control protein produced in the pGEX-2T system, which encompasses the 10th type III repeat of fibronectin, and has no effect in fibronectin-fibronectin binding assays. The solutions were incubated at 37° C. for 20 hours, then samples were collected in SDS-PAGE sample buffer either with or without 1% 2-mercaptoethanol, in order to analyze the ^125 I-fibronectin both under reducing and non-reducing conditions. After SDS-PAGE, the gels were dried and exposed to x-ray film to visualize the fibronectin bands. The fibronectin dimer migrates as a band of approximately 450,000 Daltons on a non-reduced gel. On a reduced gel fibronectin runs as a monomer at approximately 250,000 Daltons. Fibronectin from the matrix is disulfide cross-linked into high molecular weight (HMW) aggregates that typically run above 1,000,000 Daltons on a non-reducing gel, and these HMW aggregates run at the same location as monomeric fibronectin on a reducing gel. The extend of in vitro disulfide cross-linking was determined by quantitating the amount of ^125 I-fibronectin migrating as HMW aggregates vs. the total amount added to the lane. […]

IMR-90 cells = assay: Matrix assembly assay, 1 hour: binding of 125I-fibronectin to cell surfaces; type: cell-based, human; details: 1 hour labeling
fibronectin [5] = assay: Protein-protein binding assay: 125I-14 kDa fragment to coated fibronectin; parameters: species or system human; details: unlabeled competitor, 5 μg/ml fibronectin coat, 2 hours
Description: as §1, §2
as §3, with “determinations. […]” for “determinations.”

Compound: CC[C@H](C)[C@H](NC(=O)[C@H](Cc1ccc(O)cc1)NC(=O)[C@H](CCCCN)NC(=O)[C@H](CO)NC(=O)[C@@H](NC(=O)[C@H](Cc1c[nH]cn1)NC(=O)[C@H](CO)NC(=O)[C@@H]1CCCN1C(=O)[C@H](CCC(N)=O)NC(=O)[C@@H]1CCCN1C(=O)[C@H](C)NC(=O)[C@@H](N)CC(N)=O)[C@@H](C)CC)C(=O)N[C@@H](CC(C)C)C(=O)N[C@@H](CCCNC(=N)N)C(=O)N[C@@H](Cc1c[nH]c2ccccc12)C(=O)N[C@@H](CCCNC(=N)N)C(=O)N1CCC[C@H]1C(=O)N[C@@H](CCCCN)C(=O)N[C@@H](CC(N)=O)C(=O)N[C@@H](CO)C(=O)N[C@H](C(=O)NCC(=O)N[C@@H](CCCNC(=N)N)C(=O)N[C@@H](Cc1c[nH]c2ccccc12)C(=O)N[C@@H](CCCCN)C(=O)N[C@@H](CCC(=O)O)C(=O)N[C@@H](C)C(=O)N[C@H](C(=O)N[C@H](C(=O)N1CCC[C@H]1C(=O)NCC(=O)O)[C@@H](C)CC)[C@@H](C)O)C(C)C [Polypeptide P1, NAPQPSHISKYILRWRPKNSVGRWKEATIPG]
reduction of fibronectin matrix formation / incorporation into extracellular matrix [1]: ≥ 80%

protein added to the column that bound to P11-Sepharose (P11-Sepharose): Approximately 25%
protein added to the column that bound to P12-Sepharose (P12-Sepharose): 4.8%
Compound: III1 -E: Sequence ID No. 12; recombinant protein, residues 600 to 655 of human fibronectin, from pGEX-2T
concentration dependence of effect on fibronectin-fibronectin binding (biphasic) (fibronectin [2]; 24 hours at 37° C.): inhibit the binding at low concentrations, yet enhance binding at higher concentrations
protein added to the column that bound to Sepharose CL-4B control [3]: 2.3%

Compound: QE-C: Sequence ID No. 13; recombinant protein, residues 600-674 of human fibronectin, from pQE-12, His-tagged
fibronectin in the sample present in HMW aggregates (fibronectin [4]; 10 μM): approximately 20%
effect on fibronectin disulfide cross-linking (HMW aggregates) (fibronectin [4]; 37° C. for 20 hours, absence of cells): dramatic induction of disulfide cross-linking

competition for binding of 125I-14 kDa fragment to fibronectin (fibronectin [5]): did not compete
effect on fibronectin-fibronectin binding (fibronectin [2]): did not compete
binding of labeled protein to fibronectin coated on plastic (fibronectin [2]; fibronectin coated 0-100 μg/ml, 2 hours at 37° C.): dose dependent manner
Compound: fibronectin
inhibition of binding of 125I-fibronectin to cells (IMR-90 cells): completely inhibited
